Measurements from paper PMC6919601, “Identification of Plasmodium dipeptidyl aminopeptidase allosteric inhibitors by high throughput screening” (PLoS ONE, 2019).
Out of some 110,000 compounds screened, about 230 (0.21%) showed an effect of 50% or more. The list shows a part of the results.

These compounds were tested against DPAP1 (Plasmodium falciparum, UniProt Q8IIJ9) (assay: primary screen, percent inhibition; read by cleavage of a fluorogenic dipeptide substrate; higher = more effect of the substance).
Set-up: species or system P. falciparum D10 trophozoite lysates; single well
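Also: 30 min substrate incubation versus DMSO and 10 µM JCP410 controls.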

Chain of DPAP1 (Q8IIJ9 whole entry, looked up): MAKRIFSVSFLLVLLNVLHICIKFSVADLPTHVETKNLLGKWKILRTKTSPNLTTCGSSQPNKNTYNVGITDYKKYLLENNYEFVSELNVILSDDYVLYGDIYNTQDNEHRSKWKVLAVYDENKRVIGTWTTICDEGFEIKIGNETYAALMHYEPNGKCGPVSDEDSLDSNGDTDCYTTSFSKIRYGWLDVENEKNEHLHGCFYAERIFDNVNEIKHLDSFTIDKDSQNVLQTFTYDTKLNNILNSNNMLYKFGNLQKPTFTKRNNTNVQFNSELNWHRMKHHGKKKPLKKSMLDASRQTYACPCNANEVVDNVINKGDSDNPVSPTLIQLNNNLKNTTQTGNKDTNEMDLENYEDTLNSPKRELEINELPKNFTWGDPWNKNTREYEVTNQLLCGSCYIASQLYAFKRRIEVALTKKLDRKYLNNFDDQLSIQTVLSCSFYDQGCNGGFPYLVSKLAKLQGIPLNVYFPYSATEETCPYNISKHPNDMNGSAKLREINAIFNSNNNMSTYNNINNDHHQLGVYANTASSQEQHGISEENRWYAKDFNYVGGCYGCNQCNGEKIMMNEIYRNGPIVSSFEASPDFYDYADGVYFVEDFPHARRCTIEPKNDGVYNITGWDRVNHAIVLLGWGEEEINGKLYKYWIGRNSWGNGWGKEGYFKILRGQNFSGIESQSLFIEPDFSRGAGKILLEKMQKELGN

SMILES	% Inhibition @ 10 uM
Cc1ccc2cc3cc(C(=O)NCCCN4CCCCCC4)oc3nc2c1	3.53%
COc1cc(C2Nc3ccccc3C(=O)N2c2ccccc2)c(Br)cc1OCC(=O)O (stereo not drawn)	-3.37%
CCn1cc(NC(=O)NC2CCCCCC2)c(=O)c2ccc(C)nc21	2.29%
COc1ccc(S(=O)(=O)NCc2ccc(C(=O)NCc3ccc(Cl)cc3)cc2)cc1	0.208%
Brc1cccc(CSc2nc3ccccc3[nH]2)c1	-4.18%
COC(=O)c1ccccc1-c1ccc(/C=C2/C(=N)N3N=C(COc4ccccc4)SC3=NC2=O)o1	-1.6%
COc1cc(OC)nc(Oc2ccccc2CNc2ncccc2C)n1	-2.34%
Cn1c2ccc(Cl)cc2c2cc(C(=O)C(F)(F)F)ccc21	-1.41%
C/C(=N\OC(=O)c1ccccc1)c1cccs1	4.42%
CCN(CC)S(=O)(=O)c1ccc(/N=C/c2c(C)nn(-c3ccc(C)cc3C)c2O)cc1	3.05%
Cc1ccc(-c2ccc(/C=C3\C(=N)N4N=C(S(C)(=O)=O)SC4=NC3=O)o2)cc1Cl	-1.58%
CC(C)(C)c1ccc(C(=O)Nc2nnc(Cc3ccccc3)s2)cc1	4.15%
Cc1ccccc1-n1nnnc1-c1ccccc1	1.13%
O=C1Nc2ccccc2/C1=C\c1nc2ccccc2c(=O)n1-c1ccccc1	36.1%
Cc1ccc(C)c(NS(=O)(=O)c2ccc(F)cc2)c1	2.46%
COCCn1c(=N)c(C#N)cc2c(=O)n3cccc(C)c3nc21	3.6%
O=C(CSC(c1ccccc1)c1ccccc1)N1CCCCC1	2.51%
CC(C)Oc1ccc(C(=O)N(Cc2ccccc2F)C2CCS(=O)(=O)C2)cc1 (stereo not drawn)	3.62%
COc1ccc(Cl)cc1C(=O)Nc1nnc(C)s1	-8.2%
COc1ccc(Cl)cc1NC(=O)c1ccc(Br)cc1	0.379%
Cc1cccc(C(NC(N)=O)c2ccccc2)c1 (stereo not drawn)	5%
O=C(NCc1ccc2c(c1)OCO2)c1cc(-c2ccccc2)[nH]n1	-3.1%
N#CC1=C(N)Oc2nc(O)nc(O)c2C1c1ccccc1 (stereo not drawn)	1.17%
O=C(CCCO)NCCc1nc2ccccc2n1Cc1c(F)cccc1Cl	-3.08%
Cc1nn(Cc2c(Cl)cccc2Cl)c(C)c1NC(=O)c1cccs1	-4.43%
Cc1nc(N2CCN(C)CC2)c2c(C)c(C(=O)O)sc2n1	-4.74%

SMILES	% Inhibition @ 10 uM
CC(C)c1nc2sc3c(N4CCOCC4)ncnc3c2c2c1CCCC2	3.53%
CCCS(=O)(=O)N1CCCC(C(=O)NC(C)c2ccc3c(c2)OCCO3)C1 (stereo not drawn)	-1.79%
Cc1ccc(CCNCc2c(C(=O)O)[nH]c3ccccc23)cc1	-3.21%
N#CC1=C(N)N(c2c(F)cccc2F)C2=C(C(=O)CCC2)C1c1ccccc1F (stereo not drawn)	-5%
O=C(CN1CC(c2ccccc2)CC1=O)NCCc1ccc(Cl)cc1 (stereo not drawn)	0.738%
Cc1cc(N2CCC(C(=O)NCCCOC(C)C)CC2)n2nc(C)c(-c3ccc(Cl)cc3)c2n1	1.55%
Cc1cc(C=C2C(=O)N(C)C(=O)N(C)C2=O)c(C)n1-c1ccc(Br)cc1	20.5%
CCOc1cccc2c1OC1(CCC(C)CC1)N1N=C(c3ccco3)CC21 (stereo not drawn)	29.7%
Cc1ccc(/C(=C2\OC(=O)c3ccccc32)[N+](=O)[O-])c(C)c1	-6.18%
COc1ccccc1N1CCN(CCCN2C(=O)C3CCCCN3C2=O)CC1 (stereo not drawn)	-3.65%
CCOc1cc2c(cc1OCC)C(c1c(C)nn(C)c1Cl)NCC2 (stereo not drawn)	2.18%
C=CCOc1ccc(C2c3c(oc4ccc(F)cc4c3=O)C(=O)N2c2ccc(C)cn2)cc1OC (stereo not drawn)	3.73%
Cc1ccccc1C(=O)Nc1sc2c(c1C(=O)N1CCN(C)CC1)CCCC2	-2.44%
CCCCn1c(C(Cc2ccccc2)NC(=O)COC)nc2ccccc21 (stereo not drawn)	-0.58%
CC(C)CNS(=O)(=O)c1ccc(S(=O)(=O)N2CCN(CCC#N)CC2)cc1	-1.82%
O=C(c1ccc(N2C(=O)c3ccccc3C2=O)cc1)N1CCCCCC1	-1.61%
O=C(NCCN1CCOCC1)/C(=C/c1cccnc1)NC(=O)c1ccccc1	3.79%
CC(=O)Nc1nonc1-c1ccccc1	-3.03%
O=C(c1cc2nc(-c3ccco3)cc(C(F)(F)F)n2n1)N1CCCC1	-5.28%
Cn1c(=O)c2c(nc(SCC(=O)Nc3ccc(F)cc3)n2C)n(C)c1=O	-4.03%
COc1ccc(CCC(=O)Nc2ccc(C(C)C)cc2)cc1	-8.59%
COc1ccc(Cl)cc1C(=O)NC1CCCCC1	-1.61%
CCOc1ccc(-n2c(C)nc3cc(C(=O)NC4CC4)ccc32)cc1	-5.64%
Cc1nc2cccnc2n1-c1ccc(C(=O)N2CCN(C)CC2)cc1	1.98%
CC(=O)NS(=O)(=O)c1cccnc1Nc1ccc(Cl)cc1	2.13%
O=C(CN1C(=O)c2ccccc2C1=O)N1CCCCCC1	2.08%

SMILES	% Inhibition @ 10 uM
Cc1ccc(CNC(=O)CSc2nc3ccccc3n3cnnc23)cc1	0.974%
S=c1n(-c2ccccc2)cnn1CN1CCOCC1	-1.25%
CC1CCCC(N2CCN(c3ccccc3)CC2)C1 (stereo not drawn)	3.19%
Cc1cc(C)c2c(=O)n(CC(=O)NC(C)CCc3ccccc3)sc2n1 (stereo not drawn)	12%
COCCNC(=O)/C(C#N)=C/c1c(Oc2ccc(Cl)c(C)c2)nc2ccccn2c1=O	-0.828%
Cl/C(=C\c1ccccc1)CN1CCN(Cc2ccccc2)CC1	1.26%
CC1C(c2ccccc2)N(C)C(c2ccccc2)C(C)C1(C)O (stereo not drawn)	2.7%
COc1ccccc1NC(=O)C1=C(C)N=C2CC(C)(C)CC(O)=C2C1c1ccc(Br)cc1 (stereo not drawn)	4.67%
COc1cccc(/C=C2\N=C(c3ccc(-c4ccccc4)cc3)OC2=O)c1	-7.16%
Cc1c(C(=O)NCCO)c(-c2ccccc2)nn1-c1ccccc1	-1.86%
Fc1ccc(F)c(CN2CCN(c3ccc(Cl)cc3)CC2)c1	-0.0648%
CC1CCN(C(=O)COc2ccc([N+](=O)[O-])cc2)CC1	-8.12%
CCCN(Cc1cc(Br)cc(Br)c1O)CC1CC1	0.273%
O=C(CCc1nnc2ccc(N3CCOCC3)nn12)N1CCC(Cc2ccccc2)CC1	-0.264%
COc1ccc(C2c3sc(O)nc3SC3C(=O)N(c4ccc(C)cc4)C(=O)C32)cc1 (stereo not drawn)	-2.67%
CCN(CC)C(=O)c1sc(NC(=O)C2c3ccccc3Oc3ccccc32)c(C(N)=O)c1C	4.32%
O=c1[nH]c(/C=C\c2c[nH]c3ccccc23)c([N+](=O)[O-])c(=O)[nH]1	1.13%
CC(C)c1n[nH]c(N)n1	-2.23%
C=CCNC(=O)CN(c1ccc(Oc2ccccc2)cc1)S(C)(=O)=O	3.72%
O=C(OCC(c1ccccc1)c1ccccc1)C1=COCCO1	4.71%
Cc1ccccc1Cn1nc(C)c(NC(=O)c2nc3n(n2)C(C(F)F)CC(C)N3)c1C (stereo not drawn)	0.0289%
CC(NC(=O)C(=O)NCCc1c[nH]c2ccccc12)C(c1cccs1)N1CCOCC1 (stereo not drawn)	-1.08%
COc1ccc(-n2cc(-c3ccccc3)c3c(NCc4ccco4)ncnc32)cc1	5.69%
COc1ccc(C(=O)Nc2ccccc2C2(C)CC2)cc1	-2.12%
Cc1cccc(C(=O)Nc2cc([N+](=O)[O-])ccc2C)c1	-5.11%
COc1ccc(C(=N)NOC(=O)/C=C/c2ccccc2Cl)cc1OC	9.35%

SMILES	% Inhibition @ 10 uM
CCOc1ccc(C(=O)Nc2nc(C)cs2)cc1	-0.95%
COc1ccc(OC)c(CCNC(=O)CCc2nnc3n(CC(C)C)c(=O)c4ccccc4n23)c1	4.16%
C=CCSc1nc(=O)c2c(n1C)NC(=O)CC2c1cc(F)cc(F)c1 (stereo not drawn)	-4.71%
O=C1c2ccccc2-c2nn(C(=O)c3cccnc3Cl)c3cccc1c23	1.62%
CCc1ccccc1NC(=O)c1cnccn1	-5.11%
Cn1nnnc1SCc1csc(C2C(C#N)=C(N)OC3=C2C(=O)CCC3)c1 (stereo not drawn)	6.38%
COc1ccc(-c2cn3nc(N4CCC(C(=O)N(C)Cc5ccccc5)CC4)sc3n2)cc1	0.174%
COC(=O)c1c(C)[nH]c(C)c1-c1ccccc1Cl	-5.6%
Cc1cc(C)cc(N(CC(=O)NC2CC3CCC2C3)S(=O)(=O)c2ccccc2)c1 (stereo not drawn)	4.44%
O=C(C1CCN(S(=O)(=O)N2CCOCC2)CC1)N1CCCC1	3.66%
Cc1cc(NS(=O)(=O)c2ccccc2)no1	3.01%
Cc1cccc(-n2ncc3c(NCC4CCCO4)ncnc32)c1 (stereo not drawn)	-2.45%
Brc1ccccc1OCCCCCCn1ccnc1	0.815%
CCCSc1nc2c(C)cccc2cc1C#N	-8.35%
COc1ccc(CCNC2CC(=O)N(c3ccc(F)cc3)C2=O)cc1OC (stereo not drawn)	-1.57%
Cc1cc(Cl)ccc1OCC(=O)Nc1ccccc1C(=O)Nc1ccccc1	-1.35%
CCNC1=NS(=O)(=O)C(c2ccc(C)cc2)=C1C	-1.08%
CSCCCN(C)CCN(C)C	-3.42%
CCOc1ccc(S(=O)(=O)N2CCC(C(N)=O)CC2)cc1	-0.132%
COc1cccc(OC)c1C(=O)Nc1ccc(F)c(Cl)c1	3.44%
CN(CC(=O)Nc1ccc(Oc2ccccc2)cc1)S(=O)(=O)c1ccc(Br)cc1	2.01%
COc1ccc(CNCc2cc(C)c(OC)cc2C)c(OC)c1	-2.22%
O=C(CSc1ccccc1C(=O)O)NCCc1ccccc1	-6.84%
COc1cc(/C=C2\NC(=O)NC2=O)cc(Cl)c1OCc1cccc(C(=O)O)c1	3.19%
